Assay results: PubChem BioAssay AID1645882 (National Center for Advancing Translational Sciences (NCATS), 2021)
Out of some 16,000 compounds screened, about 120 (0.75%) were called active. About 4% were inconclusive and are not listed. Calls come from the whole dose curve; as a rule, active = well fitted inhibition curve with a large enough effect; inconclusive = small, poorly fitted or top-dose-only effect; inactive = no such curve, though single readings can be large or run the other way. This is one part of the list.

These molecules were tested against Rap guanine nucleotide exchange factor 3 (Homo sapiens) (UniProt O95398) (assay: Validation qHTS for antagonist of cAMP-regulated guanine nucleotide exchange factor 3 (EPAC1)). Conditions: EPAC1 Rap1B-BODIPY-GDP exchange, fluorescence; series mostly up to 150 µM; activity change, negative = inhibition: at the top concentration.
UniProt O95398, sequence (O95398 whole entry, looked up): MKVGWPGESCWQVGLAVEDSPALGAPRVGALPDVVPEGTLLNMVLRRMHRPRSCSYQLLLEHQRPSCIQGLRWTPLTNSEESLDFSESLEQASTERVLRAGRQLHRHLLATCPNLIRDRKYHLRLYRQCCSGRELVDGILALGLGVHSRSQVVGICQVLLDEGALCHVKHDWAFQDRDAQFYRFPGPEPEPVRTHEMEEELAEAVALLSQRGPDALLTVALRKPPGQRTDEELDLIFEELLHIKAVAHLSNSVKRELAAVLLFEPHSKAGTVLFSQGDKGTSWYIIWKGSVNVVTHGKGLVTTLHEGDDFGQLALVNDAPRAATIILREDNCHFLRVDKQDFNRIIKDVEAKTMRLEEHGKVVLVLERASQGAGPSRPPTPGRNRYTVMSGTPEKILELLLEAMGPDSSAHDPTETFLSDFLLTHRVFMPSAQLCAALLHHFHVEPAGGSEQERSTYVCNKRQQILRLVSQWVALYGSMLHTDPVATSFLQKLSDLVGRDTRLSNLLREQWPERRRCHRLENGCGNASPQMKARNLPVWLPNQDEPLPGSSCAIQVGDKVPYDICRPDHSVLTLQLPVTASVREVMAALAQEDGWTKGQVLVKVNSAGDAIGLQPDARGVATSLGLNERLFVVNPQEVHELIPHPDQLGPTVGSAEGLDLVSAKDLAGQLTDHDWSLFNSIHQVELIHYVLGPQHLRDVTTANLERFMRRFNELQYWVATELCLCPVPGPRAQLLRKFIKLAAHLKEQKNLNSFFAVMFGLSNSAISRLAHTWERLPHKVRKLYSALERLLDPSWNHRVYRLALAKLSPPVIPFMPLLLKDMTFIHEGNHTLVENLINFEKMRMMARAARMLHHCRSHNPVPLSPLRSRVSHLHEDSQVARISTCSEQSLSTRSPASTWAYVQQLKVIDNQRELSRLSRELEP
Method in brief: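 EPAC1 (100 nM) mixed with 250 nM RAP1B-BODIPY-GDP and 50 uM GDP; compounds in concentration series, 5 min at room temperature. Fluorescence (ex 480/em 540 nm) read every 5 min for 30 min; normalized to ATA control and DMSO.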
Note: nearly all actives have a fitted effect of over 75% in size.

Activity change, negative = inhibition, inactive:
CN1CCN(c2ncc3nc(-c4cccc(C#N)c4)c(=O)n(Cc4ccc(F)cc4)c3n2)CC1 12.9%
Cc1ccc(CN2CCc3nnc(C(NC(=O)c4ccoc4)C(C)C)n3CC2)cc1C (stereo not given) -18.3%
N[C@@H](CSSC[C@H](N)C(=O)O)C(=O)O 0.0578%
CN(C)c1ccc(C(=O)N2CCCC(Cn3cc(C(=O)N4CCCC4)nn3)C2)cc1 (stereo not given) -23.2%
CC1COc2c(N3CCN(C)CC3)c(F)cc3c(=O)c(C(=O)O)cn1c23 (stereo not given)
CS(=O)(=O)NC(=O)CCC/C=C\C[C@H]1C(=O)C[C@@H](O)[C@@H]1/C=C/[C@H](O)COc1ccccc1 25.9%
Cc1cc(C(=O)NCc2nc(-c3cccc(NC(=O)c4cc(C)oc4C)c3)oc2C)nc(C)n1 6.27%
O=C(N[C@H]1CCC(=O)N(CCSc2ccc(Br)cc2)CC1)OCc1ccccc1 -0.101%
CC(C)=CCC1C(=O)N(c2ccccc2)N(c2ccccc2)C1=O 57.2%
CN1CCN(c2cc3c(cc2F)c(=O)c(C(=O)O)cn3-c2ccc(F)cc2)CC1 16.6%
O=C(O)CCCC[C@@H]1SC[C@@H]2NC(=O)N[C@@H]21 5.2%
C[N+]1(C)CCc2cc3c(cc2[C@@H]1[C@@H]1C(=O)Oc2c1ccc1c2OCO1)OCO3
Cn1cc(-c2nc3cnc(N4CCNCC4)nc3n(C)c2=O)c2ccccc21 -0.141%
Cc1cc(=O)[nH]c2ccc(O)cc12 -6.02%
CCOC(=O)Nc1ccc(NCc2ccc(F)cc2)nc1N
O=c1cnc2cnc(N3CCOCC3)nc2n1C[C@H]1CCCO1 21.4%
CCOC(=O)N1CCC(N2CCOc3ccc(CN4CCC(O)(c5cccnc5)CC4)cc3C2)CC1 2.96%
COc1cccc(Nc2ncc3nc(-c4cn(C)c5ccccc45)c(=O)n(CCC#N)c3n2)c1 1.53%
NCCC[C@@H](N)C(=O)O -6.84%
COCC(=O)Nc1c(I)c(C(=O)NCC(O)CO)c(I)c(C(=O)N(C)CC(O)CO)c1I (stereo not given) 8.99% [at 75.8 µM]
COc1ccc(-n2c(=O)c(-c3ccc(F)cc3)nc3cnc(OC)nc32)cc1 15.8%
COc1c(C=O)c(O)cc2c1C(=O)c1ccccc1C2=O
CCOC(=O)/C=C/c1ccccc1S(=O)(=O)NC(C)(C)C -17.9%
CCC1CN(CC(=O)NC(C)c2c(C)nn(C)c2C)Cc2cc(OC)ccc2O1 (stereo not given) 5.2%
C[C@@H](CSc1ccc(Br)cc1)CN1CC[C@H](C(C)(C)C)CCC1=O -19.3%
NCCCCCCCCCCNS(=O)(=O)c1cccc2c(Cl)cccc12 -3.2%
CN(C)[C@@H]1C(=O)C(C(N)=O)=C(O)[C@@]2(O)C(=O)C3=C(O)c4c(O)ccc(Cl)c4[C@@H](O)[C@H]3C[C@@H]12
CCN1CCC(N[C@H]2C[C@@H](C(=O)NC)N(Cc3cccc4ccccc34)C2)CC1 -1.7%
COC(=O)[C@@H](NC(=O)C1CCCN(c2nc(C)c3ccc(C)cc3n2)C1)C(C)C (stereo not given in full) 0.801%
OCC1CCCN(c2nc3cc4c(cc3cc2CNCc2cccs2)OCO4)C1 (stereo not given) 18.7%
COc1c2c(nc3ccccc13)OC(C(C)(O)CO)C2 (stereo not given) 0.666%
COc1ccc2c(c1)CCc1cnc(-n3ncc(C(=O)N(C)CC4CCCN(C)C4)c3C)nc1-2 (stereo not given) 6.75%
COc1cc2c(cc1OC)-c1c(OC)c(OC)cc3ccnc(c13)C2=O 2.42%
CC[C@@]1([C@@H]2O[C@@H]([C@H]3O[C@@](O)(CO)[C@H](C)C[C@@H]3C)C[C@@H]2C)CC[C@H]([C@]2(C)CC[C@]3(C[C@H](O)[C@@H](C)[C@@H]([C@@H](C)[C@@H](OC)[C@H](C)C(=O)O)O3)O2)O1 (stereo in doubt)
CC(O)CCCCn1c(=O)c2c(ncn2C)n(C)c1=O (stereo not given) 14.9%
CC(=O)Oc1cc2c(s1)CCN(C(C(=O)C1CC1)c1ccccc1F)C2 (stereo not given) 20.6%
OC[C@H]1O[C@@H](n2cnc3c(NC4CCCC4)nc(Cl)nc32)[C@H](O)[C@@H]1O 41.9%
COc1ccc(NC(=O)N2CCCC3(CCN(C(=O)c4ccncc4)CC3)C2)cc1 30.5%
CCCCC(=O)N(Cc1ccc(-c2ccccc2-c2nn[nH]n2)cc1)[C@@H](C(=O)O)C(C)C 23.8%
CC(C)C(=O)Nc1ccc([N+](=O)[O-])c(C(F)(F)F)c1
Cc1c(C(=O)N2CCCC2)sc2ncnc(NCCCN3CCOCC3)c12 1.23%
C[C@H]1O[C@@H](O[C@H]2CC[C@@]3(C)[C@H](CC[C@@H]4[C@@H]3C[C@@H](O)[C@]3(C)[C@@H](C5=CC(=O)OC5)CC[C@]43O)C2)C[C@H](O)[C@@H]1O[C@H]1C[C@H](O)[C@H](O[C@H]2C[C@H](O)[C@H](O[C@@H]3O[C@H](CO)[C@@H](O)[C@H](O)[C@H]3O)[C@@H](C)O2)[C@@H](C)O1 18.6%
COc1ccccc1-c1nc(N(C)C)c2ccccc2n1 13.7%
COCC(=O)Nc1cc(C(=O)NC2CCCc3ccccc32)c2c(c1)nc(-c1ccncc1)n2C (stereo not given) 3.61%
CC1=CC(=O)C2=C(C)C[C@@H]3OC(=O)[C@@H](C)[C@H]3C=C12 21.2%
O=S(=O)(N(Cc1ccccc1)[C@@H](CO)Cc1ccccc1)N(Cc1ccccc1)[C@@H](CO)Cc1ccccc1 -1.23%
O=C(CO)[C@@H](O)[C@H](O)[C@@H](O)C(=O)O 10.8%
OCCN1C[C@H](O)[C@@H](O)[C@H](O)[C@H]1CO -11.3%
CCC(=O)NC1CCc2cccc(OC)c2C1 (stereo not given) 14.5%
Cc1ccsc1CN1CCc2nnc(CCNC(=O)c3ccc(F)cc3)n2CC1 13.5%
COc1cc(-c2c(OC)cccc2OC)cc2c1OCCN(C(=O)CCC(=O)c1ccc(F)cc1)C2 13.3%
Cc1ccc(C(=O)NCCc2nnc3n2CCN(Cc2cc(C)cc(C)c2)CC3)cc1 -5.23%
O=[N+]([O-])c1ccc(/C=N\O)o1 15.3%
CC(=O)Oc1ccc2c(c1)CCC1C2CC[C@]2(C)C(OC(C)=O)CCC12 (stereo not given in full) -28.3%
COc1cccc(Cn2c(=O)c(-c3cccc(C#N)c3)nc3cnc(N4CCOCC4)nc32)c1 9.65%
CC(=O)OCC[N+](C)(C)C
COc1cc2c(c(OC)c1OC)-c1c(cc3c(c1OC)OCO3)C[C@@H](C)[C@](C)(O)C2
N[C@@H](Cc1cc(-c2ccc(Cl)cc2Cl)cc(CP(=O)(O)O)c1O)C(=O)O -9.72%
CC1(C)CCC2=C(O1)c1ccccc1C(=O)C2=O 0.439% [at 75.8 µM]
CNc1nc(-c2ccc3c(c2)OCO3)nc2ccccc12 -7.55%
CC(=O)NCCNc1ncnc2ccc(-c3cccc(NS(C)(=O)=O)c3)cc12 5.68%
Cn1cccc1C(=O)N1CCC2(CC1)CN(C(=O)Nc1cccc(C#N)c1)C2 -13.3%
COc1cc(CN2CCC3(CCC(CNC(=O)c4ccccc4)O3)CC2)cc(OC)c1 (stereo not given) 13.7%
CCOc1ccc(NC(=S)Nc2ccc(OCC)cc2)cc1 -2.81%
CC(=O)OC1CC(OC(C)=O)[C@]2(C)C(CC(O)[C@]3(C)C2CC[C@@]2(C)C(c4ccoc4)OC(=O)C4O[C@]432)C1(C)C (stereo not given in full) -25.5%
CC(C)=CCOc1cc2oc(=O)ccc2cc1O -0.175%
Cc1cc(O)c(C)c2c1CC[C@H]1[C@H](C)C(=O)O[C@H]21 17.4%
CC1(C)C(=O)CC[C@@]2(C)C1CC(O)[C@@]1(C)C3=CC(=O)OC(c4ccoc4)[C@]3(C)CCC21 (stereo not given in full) 10.1%
O=C(O)CSCC(=O)NC1CCSC1=O (stereo not given) 37%
O=C(Nc1ccccc1)N1CCC2(CC1)CCN(S(=O)(=O)c1ccccc1)CC2 2.58%
O=C1C(SCCO)=C(SCCO)C(=O)c2ccccc21
COc1ccc(Oc2ncc3nc(-c4ccc(F)cc4)c(=O)n(Cc4cccs4)c3n2)cc1 -0.023%
CCCCCCCC/C=C\CCCCCCCC(=O)OCC(CO)OC(=O)CCCCCCC/C=C\CCCCCCCC (stereo not given) 2.68% [at 15.3 µM]
CNC(=O)Oc1ccc2c(c1)[C@]1(C)CCN(C)[C@@H]1N2C
COc1cc(/C=C/C(=O)CC(=O)/C=C/c2ccc(O)c(OC)c2)ccc1O
Cc1cccc(CNc2cc(-c3cccc(C#N)c3)ncn2)c1 0.998%
COc1ccccc1-c1ccnc(-n2ncc(C(=O)NCc3cccc(C)n3)c2C)n1 25.8%
CO/N=C(\C(=O)N[C@@H]1C(=O)N2C(C(=O)O)=C(CSc3cnns3)CS[C@H]12)c1csc(N)n1 1.19%
CC(C)CN(C[C@@H](O)[C@H](Cc1ccccc1)NC(=O)O[C@H]1CO[C@H]2OCC[C@H]21)S(=O)(=O)c1ccc(N)cc1 7.47%
COc1cccc(-c2nc3cc4c(cc3cc2CN(C(=O)c2cc(C)nn2C)C2CC2)CCC4)c1OC 0.505%
CN(C)C(=O)c1ccc(-c2ccc3ncnc(N(C)C)c3c2)cc1 6.79%
CCCCCc1ccc(-c2cn(Cc3ccc([N+](=O)[O-])cc3)nn2)cc1 -11.4%
COCCn1c(=O)c(CCc2ccccc2)nc2cnc(N3CCN(C)CC3)nc21 8.29%
O=C1CCN(CCc2ccccc2)CCN1CCO -23.2%
CC1CC2(C)Oc3ccccc3C3OCC1(COC(=O)Nc1ccccc1)C(C)C32 (stereo not given) -5.79%
CO[C@H]1C[C@@H]2CC[C@@H](C)[C@@](O)(O2)C(=O)C(=O)N2CCCC[C@H]2C(=O)O[C@H]([C@H](C)C[C@@H]2CC[C@@H](O)[C@H](OC)C2)CC(=O)[C@H](C)C=C(C)[C@@H](O)[C@@H](OC)C(=O)[C@H](C)C[C@H](C)/C=C/C=CC=C1C -27%
CN(Cc1ccco1)c1ncncc1-c1ccccc1C(F)(F)F 4.28%
O=C1C[C@@H]2c3c(cccc3CN1Cc1ccc(Br)cc1)C[C@@H](O)[C@H]2O 15.3%
Cn1cc(-c2nc3cncnc3n(Cc3ccc(F)cc3)c2=O)c2ccccc21 5.48%
NCC[C@H](O)C(=O)N[C@@H]1C[C@H](N)[C@@H](O[C@H]2O[C@H](CN)[C@@H](O)[C@H](O)[C@H]2O)[C@H](O)[C@H]1O[C@H]1O[C@H](CO)[C@@H](O)[C@H](N)[C@H]1O -12%
